Paper PMC4336329 (PLoS ONE, 2015)
Screen size: about 310,000 compounds; about 14,000 (4.5%) showed an effect of 50% or more. The effect is printed as a negative number. This is one part of the list.

Target: human ether-à-go-go-related gene (hERG) potassium channel (human, UniProt Q12809)
Assay: primary screen, population patch clamp on CHO cells stably expressing hERG
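Also: peak tail current of the secondary pulse compared with the same well before compound.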

human ether-à-go-go-related gene (hERG) potassium channel, sequence (Q12809 whole entry, looked up): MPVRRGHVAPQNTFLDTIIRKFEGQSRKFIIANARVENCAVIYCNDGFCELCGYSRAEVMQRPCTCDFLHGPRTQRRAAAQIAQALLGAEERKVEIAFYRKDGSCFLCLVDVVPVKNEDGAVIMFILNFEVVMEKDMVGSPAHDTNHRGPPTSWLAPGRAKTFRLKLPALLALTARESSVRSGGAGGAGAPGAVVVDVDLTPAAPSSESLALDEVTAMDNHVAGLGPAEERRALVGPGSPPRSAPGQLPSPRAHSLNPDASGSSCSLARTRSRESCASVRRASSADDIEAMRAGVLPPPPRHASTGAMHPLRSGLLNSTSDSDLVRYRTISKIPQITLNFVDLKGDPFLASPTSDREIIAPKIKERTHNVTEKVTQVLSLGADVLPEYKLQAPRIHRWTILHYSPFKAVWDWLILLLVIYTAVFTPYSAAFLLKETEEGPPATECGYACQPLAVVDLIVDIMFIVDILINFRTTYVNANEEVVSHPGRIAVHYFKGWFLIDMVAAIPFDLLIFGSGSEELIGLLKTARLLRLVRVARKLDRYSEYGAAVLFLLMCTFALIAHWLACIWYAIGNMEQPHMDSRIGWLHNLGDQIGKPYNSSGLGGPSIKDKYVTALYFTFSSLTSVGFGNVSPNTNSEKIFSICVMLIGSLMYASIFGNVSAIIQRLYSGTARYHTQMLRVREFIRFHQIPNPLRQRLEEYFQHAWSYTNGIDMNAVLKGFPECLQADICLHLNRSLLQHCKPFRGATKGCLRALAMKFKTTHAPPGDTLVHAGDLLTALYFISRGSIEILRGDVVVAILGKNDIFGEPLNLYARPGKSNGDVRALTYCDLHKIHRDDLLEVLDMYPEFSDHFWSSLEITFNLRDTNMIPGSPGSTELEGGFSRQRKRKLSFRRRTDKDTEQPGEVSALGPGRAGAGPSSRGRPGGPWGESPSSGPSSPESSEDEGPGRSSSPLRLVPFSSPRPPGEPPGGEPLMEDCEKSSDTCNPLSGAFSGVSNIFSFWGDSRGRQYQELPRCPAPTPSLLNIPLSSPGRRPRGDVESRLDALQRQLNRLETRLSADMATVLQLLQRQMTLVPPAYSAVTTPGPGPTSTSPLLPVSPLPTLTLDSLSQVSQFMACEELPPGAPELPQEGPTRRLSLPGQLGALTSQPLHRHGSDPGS

Structure (SMILES) | hERG current change (%, negative = inhibition) at 10uM [%]
COc1ccc(CNC(=O)CCc2cc(OC)c(OC)c(OC)c2)cc1 | 12.7
Clc1ccc(Cc2noc(-c3cccs3)n2)cc1 | 5.47
COc1ccc(OCCCn2c(=O)oc3ccccc32)cc1 | -4.51
CCN(CCCNC(=O)c1ccc2c(c1)NC(=O)CN2C)c1cccc(C)c1 | -16.5
CC1=CCC2C(=O)N(c3nc(C)cc(C)n3)C(=O)C2C1 (stereo not drawn) | 23.9
COc1cc(NC(=O)CCCNC(=O)Cn2cnc3sc(C)c(C)c3c2=O)cc(OC)c1OC | -2.74
O=C(CSc1nnc2ccccn12)Nc1ccc(S(=O)(=O)N2CCOCC2)cc1 | -5.99
NC(=O)Nc1cc(Cl)ccc1Cl | 2.21
CCNc1nc(NCC)nc(N/N=C/c2ccc(N(C)C)cc2)n1 | -7.64
O=C(c1cccc(F)c1)N1CCN(C(=O)c2nn3cccnc3c2Cl)CC1 | 1.51
Cc1cnc(NC(=O)CSc2nnc(C)n2N)s1 | -1.2
CCn1c(=O)n(CC)c2cc(S(=O)(=O)NCCOc3ccccc3)c(C)cc21 | -5.88
O=C(O)c1cc(N2C(=O)CCC2=O)ccc1Cl | 7.84
CCC(=O)Nc1cc(C(C)C)c(O)cc1C | 7.96
c1ccc(Cn2c(-c3ccccc3)nc3nc4ccccc4nc32)cc1 | -4.99
COC(=O)C1=C(c2ccc(F)cc2OCc2ccccc2)C[C@@H]2CC[C@H]1N2C(=O)NCc1ccccc1 | -1.03
COc1cc2[nH]c(C(=O)Nc3ccc4c(c3)OCCO4)cc2c(OC)c1OC | 9.49
CCOC(=O)c1cn[nH]c1NC(=S)Nc1ccccc1 | -10
Cc1cccc(N=c2c([N+](=O)[O-])nn(-c3ccc(Cl)cc3)n2O)c1 | -0.317
O=C(CC1Nc2ccccc2NC1=O)NCC1COc2ccccc2O1 (stereo not drawn) | -11.3
COc1ccc(CNc2nc3ccccc3n2C(C)C)c(O)c1 | -6.72
O=C(NCCc1ccccc1)c1cc(-c2ccc3c(c2)OCO3)on1 | -7.29
CC(C)C(=O)Nc1nnc(CCN2CCOCC2)s1 | 5.7

Structure (SMILES) | hERG current change (%, negative = inhibition) at 10uM [%]
CN1CCN(C(=O)C2=C[C@@H](C3CCCCC3)C[C@@H](OCc3ccc(CO)cc3)O2)CC1 | -13.6
CCN(CC)CCN1C(=O)C(O)=C(C(=O)c2ccc(C)o2)C1c1ccccn1 (stereo not drawn) | 23.4
O=C(NCc1cccs1)NC1CCCCC1 | 3.88
COc1cccc(NS(=O)(=O)c2csc(C(N)=O)c2)c1 | 21.8
COC(=O)c1sc(=S)n(-c2ccc(Cl)cc2)c1C | -8.3
Cn1nc2c(c1C(=O)N1CCCC(C(=O)c3cc(F)ccc3F)C1)CCCC2 (stereo not drawn) | -7.41
Cc1ccc(NC(=O)CN2CCN(CCN=CC3=C(O)CC(c4ccc(C)cc4)CC3=O)CC2)cc1 (stereo not drawn) | -45.3
COc1ccccc1C(=O)N1CCc2ccccc21 | 10.2
CC1(C)C(=S)N(Cc2ccccc2)c2ccccc21 | 14.4
O=C(Nc1ccc(Br)cc1F)C1CC(=O)N(C2CCCCC2)C1 (stereo not drawn) | 8.54
CCOc1c(OC)cccc1C(=O)NCC1(c2ccccc2)CCCC1 | -3
O=C(Nc1ccc(Nc2ccccc2)cc1)c1ccccc1 | -14.4
CCN(CC)C(=O)C(C)OC(=O)COc1ccc(Cl)cc1Cl (stereo not drawn) | -10.3
CCCCN(CCCC)C(=S)NC(=O)C(C)(C)C | 5.27
CC(=O)C1=C(NC(=O)c2ccccc2F)C[C@@H]2[C@H]1C2(C)C | -1.47
CC(C)C(NC(=O)c1ccco1)C(=O)NCC(c1ccco1)N1CCCCC1 (stereo not drawn) | 20
Cc1nnsc1C(=O)NNS(=O)(=O)c1cc(C(F)(F)F)cc(C(F)(F)F)c1 | 7.35
CCCCCCCCCCCCCCCC[n+]1ccc(/C=N/O)cc1.[Br-] | 14.9
COCC(C)N1CCC(n2nccc2NC(=O)c2ccccc2Cl)CC1 (stereo not drawn) | -47.9
CC(=O)c1ccc(N2CCN(C(=O)Nc3ccc(F)cc3F)CC2)cc1 | -24
CC(C(=O)Nc1cccnc1)C1Sc2ccccc2NC1=O (stereo not drawn) | 2.59
CN1C(=O)OC(C)(C)C1=O | -2.78
O=C(CSc1nnc(COc2ccc(Cl)cc2)o1)N1c2ccccc2CCc2ccccc21 | -8.5

Structure (SMILES) | hERG current change (%, negative = inhibition) at 10uM [%]
O=C(O)C(=O)O.O=S(=O)(c1ccc(Cl)cc1)N1CCC(N2CCOCC2)CC1 | -11.5
CCOc1ccc(-c2nnn(CC(=O)NCc3ccc(OC)cc3)n2)cc1OCC | -3.62
COc1ccccc1CN(C)C(=O)c1cc(-c2cccs2)nc2ccccc12 | 4.13
CC(=O)NCCSc1ccc(S(=O)(=O)N2CCCC2)cn1 | 12.1
O=C(NCCc1ccccc1)c1ccc2c(c1)OCCO2 | 24.9
O=C1CC(C(F)(F)C(F)(F)C(F)(F)C(F)(F)F)=Nc2ccccc2N1 | 2.97
COc1ccc(-c2csc3nc(-c4cccnc4)nc(Cl)c23)cc1OC | 6.04
Oc1ccc(C=Nc2ccc(N3CCOCC3)cc2)c(O)c1 | 10.4
CN1/C(=c2/s/c(=C3/C(=O)N(c4ccccc4)NC3=Nc3ccccc3)n(C)c2=O)C(C)(C)c2ccccc21 | 13.3
CCC(C)NC(=S)N(Cc1cc2cc(C)ccc2n2nnnc12)CC(C)(C)NC(C)C (stereo not drawn) | 13.9
COc1ccccc1NC(=S)N(CCCN(C)C)Cc1cc2cc3c(cc2[nH]c1=O)OCO3 | 33.3
CC(C)(C)c1ccc(NC(=O)Nc2ccc3ccccc3n2)cc1 | 19
COc1ccc(OC(C)C(=O)NC2CCCCCCC2)cc1 (stereo not drawn) | 8.42
COc1ccc(S(=O)(=O)N2CC(O)C[C@H]2C(=O)OCC(=O)N2CCCCCC2)cc1 (stereo partly drawn) | 58.7
Cc1cc(Nc2c(C)cccc2C)n2nc(C)nc2n1 | 3.66
Cc1[nH]c2ccccc2c1N=Nc1ccccc1F | 25.9
N#Cc1nc(Cc2ccccc2)oc1NCCN1CCOCC1 | -4.69
COC(=O)c1ccc(NS(=O)(=O)c2ccccc2)o1 | 24.8
Cc1cc(OC(C)C(=O)NCC2CCC(C(=O)O)CC2)c2c(C)c(C)c(=O)oc2c1 (stereo not drawn) | 4.69
COc1cc(OC)nc(Oc2cccc(C(F)(F)F)c2)n1 | 3.89
C=CCn1c(SCC(=O)c2ccc(O)c(O)c2)nnc1-c1ccc(OC)cc1 | 16.4
NC(=O)CSc1nnc(-c2cccnc2)n1CCc1ccccc1 | 14
COc1ccc(CN(Cc2ccc(C(=O)O)cc2)C(=S)Nc2ccccc2F)cc1OC | 9.99

Structure (SMILES) | hERG current change (%, negative = inhibition) at 10uM [%]
COc1ccc(/C=N/NC(=O)c2ccc(NS(=O)(=O)c3cccs3)cc2)cc1 | 1.53
Cc1ccc(C2CC(=O)Nc3cc4c(cc32)OCCO4)s1 (stereo not drawn) | 11.7
Cc1ccccc1OCCC(=O)Nc1ccc2c(C)cc(=O)oc2c1 | 19.9
CC(C)=NNc1nc2c(c(=O)n(C)c(=O)n2C)n1CCc1ccccc1 | 2.38
COc1cc(OC)c(NC(=O)CCNS(=O)(=O)c2cc(Br)cnc2N)cc1Cl | 5.03
CCc1ccc(/C=C2\CN(CC)Cc3c2nc2ccccc2c3C(=O)O)cc1 | -4.8
CCCNC(=O)C(NS(=O)(=O)c1ccc2c(c1)c(=O)n(C)c(=O)n2C)c1ccccc1 (stereo not drawn) | 0.525
Nc1ccc(SCc2nc3cccc4c3n2CCC4)cc1 | -20.7
O=C(c1cc(-c2ccc(Cl)cc2)on1)N1CCCC1 | -4.61
Cc1cc(SCc2c(F)cccc2Cl)nc(=O)[nH]1 | 4.83
Cc1ccc(S(=O)(=O)NC(=O)c2cc(C)n(-c3ccc(N(C)C)cc3)c2C)cc1 | -25.2
Cc1csc(NC(=O)CSc2nnc(C)s2)n1 | 9.23
O=C(NCC1CCCCC1)c1cccc(Br)c1 | -3.31
COc1ccccc1-c1nc(C#N)c(N2CCC(C(N)=O)CC2)o1 | 1.14
O=C(NC1CCCc2c1cnn2-c1cc(F)cc(F)c1)c1ccccn1 (stereo not drawn) | -52.4
CCC(C(=O)NC1CCCC1)N(C(=O)Cn1nnc(-c2ccc(OC)c(OC)c2)n1)c1cccc(O)c1 (stereo not drawn) | 0.163
O=C(O)c1ccc(-n2c(=O)c3ccccc3c3ccccc3c2=O)cc1 | 14.4
CN1C(=O)Cc2cc(S(=O)(=O)N3CCN(c4ccc(Cl)cc4)CC3)ccc21 | -2.2
COc1cc(CNCCc2ccc(S(N)(=O)=O)cc2)ccc1OCC(=O)NC(C)(C)C.Cl | 9.88
Cc1cc(C)nc(-n2nc(C)cc2NC(=O)CN2CCCC2)n1 | -34.1
Cc1cccc(Oc2nc(-c3ccccn3)nc3ccccc23)c1 | -12.1
